Results reported in PubChem BioAssay AID1030 (National Center for Advancing Translational Sciences (NCATS), 2008).
Screen size: about 220,000 compounds; about 16,000 (7.3%) were called active. The inconclusive results got no clear call from the source; some entries with a clear call stand among them for comparison. Calls follow the shape of the dose curve; as a rule, active = well fitted inhibition curve with a large enough effect (not every such curve was filed as active); inconclusive = small, poorly fitted or top-dose-only effect, or another doubt; inactive = no such curve, though single readings can be large or run the other way. Potencies of inconclusive entries are left out as doubtful fits.

Target: Aldehyde dehydrogenase 1A1 (Homo sapiens) (UniProt P00352)
Assay: qHTS Assay for Inhibitors of Aldehyde Dehydrogenase 1 (ALDH1A1);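 as to activity, negative = inhibition: plate controls were no enzyme wells and a reference inhibitor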
Conditions: Purified ALDH1A1, NADH fluorescence, propionaldehyde substrate; series mostly up to 75.3 µM; activity, negative = inhibition: at the top concentration
Potency is read from the fitted curve at half-maximal effect; tags tell the direction and shape of the fitted curve.

Sequence of UniProt P00352 (P00352 whole entry, looked up): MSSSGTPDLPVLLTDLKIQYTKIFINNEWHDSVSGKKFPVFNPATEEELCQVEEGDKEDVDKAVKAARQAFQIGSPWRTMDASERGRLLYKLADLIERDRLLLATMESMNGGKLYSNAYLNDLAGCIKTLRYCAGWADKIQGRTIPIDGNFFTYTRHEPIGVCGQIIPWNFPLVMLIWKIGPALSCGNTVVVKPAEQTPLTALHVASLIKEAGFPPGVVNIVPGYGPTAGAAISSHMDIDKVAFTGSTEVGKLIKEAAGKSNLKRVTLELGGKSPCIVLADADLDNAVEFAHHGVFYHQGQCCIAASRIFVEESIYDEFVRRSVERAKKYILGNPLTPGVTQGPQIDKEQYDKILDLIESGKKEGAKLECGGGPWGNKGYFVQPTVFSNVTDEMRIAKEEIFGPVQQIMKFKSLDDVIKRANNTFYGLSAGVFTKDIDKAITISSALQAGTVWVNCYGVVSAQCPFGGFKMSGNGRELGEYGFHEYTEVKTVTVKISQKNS

Q: For `Cc1cc(C[n+]2ccccc2)c2nsnc2c1`, which Potency is on record?
A: Its Potency is inconclusive [inhibitor, partial curve].

Q: With `CCN(CC)S(=O)(=O)c1ccc(NC(=O)COC(=O)CCc2cc(OC)c(OC)c(OC)c2)cc1` as the compound, how does the Potency read?
A: Its Potency is active: 2.51 µM.

Q: How did the “activity, negative = inhibition” value turn out when `NC(N)=NC1=NC(=O)C(Cc2ccccc2Cl)S1` (centres undefined) was run?
A: The value was inactive: 7.38%.

Q: With `CCOC(=O)c1c2c(n3ccccc13)C(=O)c1ccccc1C2=O` as the compound, how does the Potency read?
A: The Potency was inconclusive [inhibitor, partial curve, poor fit].

Q: `Cc1cc(C)n(C(=O)Cc2cn3ccsc3n2)n1` was tested. Which Potency did it give?
A: Its Potency is inconclusive [inhibitor, single point].

Q: `CC(C)NC(=O)c1cc2c(s1)CCCC2` was tested. Which Potency did it give?
A: The Potency was inconclusive [inhibitor, single point].

Q: How did the Potency turn out when `O=C(Nc1ccc(O)cc1)c1ccc(C(=O)c2ccccc2)o1` was run?
A: The Potency was inconclusive [inhibitor, single point].

Q: For `CCC(=O)Nc1ccc2nc(C)n(Cc3ccccc3Cl)c(=O)c2c1`, which Potency is on record?
A: The Potency was inconclusive [inhibitor, single point].

Q: Which Potency does the source give for `COC(=O)c1ccccc1NC(=O)c1nc2nc(C)cc(C(F)F)n2n1` here?
A: Its Potency is inconclusive [inhibitor, single point].

Q: How did the “activity, negative = inhibition” value turn out when `CCOC(=O)CCC(=O)N1CCOCCOCCN(C(=O)CCC(=O)OCC)CCOCCOCC1` was run?
A: Its value is inactive: 0.393%.

Q: With `Cc1ccc2c(c1)nnn2C1CCN(S(=O)(=O)c2ccc(C(=O)N3C(C)CCCC3C)cc2)CC1` (centres undefined) as the compound, how does the “activity, negative = inhibition” value read?
A: The value was inactive: -2.99%.

Q: How did the “activity, negative = inhibition” value turn out when `CC1CCN(c2ncnc3nc[nH]c23)CC1` was run?
A: The value was inactive: 5.95%.

Q: Which Potency does the source give for `NC(=S)Nc1ccc(Oc2ccc(NC(N)=S)cc2)cc1` here?
A: The Potency was active: 28.2 µM.

Q: With `CCNc1ncc2ncc(=O)n(C)c2n1` as the compound, how does the Potency read?
A: Its Potency is inconclusive [inhibitor, partial curve].

Q: With `N#CC1=C(Nc2ccccc2)SC=C(c2ccccc2)N=C1N1CCOCC1` as the compound, how does the Potency read?
A: Its Potency is active: 25.1 µM.

Q: For `COC(=O)c1c(CSc2ccc(Cl)cc2)noc1C(=O)NCc1ccco1`, which Potency is on record?
A: Its Potency is inconclusive [inhibitor, single point].

Q: `COc1ccc(NC(=O)CCS(=O)(=O)c2ccccc2Cl)cc1S(=O)(=O)Nc1ccc(Cl)cc1` was tested. Which “activity, negative = inhibition” value did it give?
A: Its value is inactive: -10.2%.

Q: How did the Potency turn out when `CC(C)Cn1c(-c2ccco2)csc1=Nc1cccnc1` was run?
A: Its Potency is active: 12.6 µM.

Q: For `S=c1[nH]nc(Cc2ccc(Br)cc2)n1/N=C/c1ccc(Cl)cc1`, which Potency is on record?
A: Its Potency is active: 28.2 µM.

Q: `Cc1ccccc1-c1nc(Nc2ccncc2)c2ccccc2n1` was tested. Which Potency did it give?
A: Its Potency is inconclusive [inhibitor, partial curve].

Q: `Cc1cccc2sc(N(CCN(C)C)C(=O)/C=C/c3cccs3)nc12` was tested. Which Potency did it give?
A: The Potency was inconclusive [inhibitor, partial curve].

Q: How did the Potency turn out when `CC(=O)c1c(C)oc2ccc(NS(=O)(=O)c3ccc(O)c(C(=O)O)c3)cc12` was run?
A: The Potency was inconclusive [inhibitor, single point].

Q: For `O=C(N/N=C/c1ccccc1OCc1ccccc1)c1cccs1`, which Potency is on record?
A: Its Potency is inconclusive [inhibitor, single point].

Q: `CC1CCCC(NC(=O)COC(=O)c2c[nH]c(=O)[nH]c2=O)C1C` (centres undefined) was tested. Which Potency did it give?
A: Its Potency is inconclusive [inhibitor, partial curve, poor fit].

Q: Which “activity, negative = inhibition” value does the source give for `COC(=O)c1nn(-c2ccccc2)c(Sc2ccc(Br)cc2)c1/C=N/O` here?
A: The value was inactive: -10.5%.

Q: `CCc1nnc(NC(=O)CSc2nnc(-c3ccco3)o2)s1` was tested. Which “activity, negative = inhibition” value did it give?
A: Its value is inactive: 5.86%.

Q: Which Potency does the source give for `CCCCNc1cc(C)nc(NCc2ccccc2)n1` here?
A: Its Potency is inconclusive [inhibitor, partial curve].

Q: With `CCOc1ccc(C2c3c(oc4ccccc4c3=O)C(=O)N2c2ccc(C)cn2)cc1OC` (centres undefined) as the compound, how does the “activity, negative = inhibition” value read?
A: Its value is inactive: -4.97%.

Q: How did the “activity, negative = inhibition” value turn out when `CCC1(c2ccc(F)cc2)NC(=O)N(CC(=O)c2ccc[nH]2)C1=O` (centres undefined) was run?
A: Its value is inactive: -5.21%.

Q: `O=[N+]([O-])c1ccc(Cl)c(/C=N/n2c(-c3cccnc3)n[nH]c2=S)c1` was tested. Which Potency did it give?
A: Its Potency is active: 7.94 µM.

Q: `S=c1[nH]nc(-c2ccccc2)n1/N=C/c1cccs1` was tested. Which Potency did it give?
A: Its Potency is active: 25.1 µM.

Q: With `O=C(N/N=C\c1cccnc1)c1cc(-c2ccc(Cl)s2)[nH]n1` as the compound, how does the “activity, negative = inhibition” value read?
A: Its value is inactive: -3.21%.

Q: Which Potency does the source give for `Cc1cc(=O)oc2c(CN(C)Cc3ccccc3)c(O)ccc12` here?
A: The Potency was inconclusive [inhibitor, full curve].

Q: For `Cc1ccc(-c2nc(N)sc2CC(=O)OCC(=O)NCC2CCCO2)cc1` (centres undefined), which Potency is on record?
A: The Potency was inconclusive [inhibitor, partial curve, poor fit].

Q: How did the Potency turn out when `CCN(Cc1ccccc1)c1ccc(/C=N/N=C(N)N)cc1` was run?
A: The Potency was inconclusive [inhibitor, partial curve].

Q: With `O=C(CN1CCN(C/C=C/c2ccccc2)CC1)NC(=O)NC1CCCCC1` as the compound, how does the “activity, negative = inhibition” value read?
A: The value was inactive: -6.4%.

Q: With `CCc1nn2cc(C(=O)c3ccccc3O)cnc2c1-c1ccc(F)cc1` as the compound, how does the Potency read?
A: Its Potency is inconclusive [inhibitor, single point].

Q: How did the Potency turn out when `Cc1c(C(=O)OC(C)C)sc(NC(=O)c2cccnc2)c1C#N` was run?
A: The Potency was inconclusive [inhibitor, single point].

Q: With `COCCOc1cc(NC(=O)c2cccc(OC)c2)c(Cl)cc1Cl` as the compound, how does the Potency read?
A: Its Potency is inconclusive [inhibitor, partial curve].

Q: For `Cc1cc(C)c(C)c(/C=C(/C#N)C(N)=S)c1C`, which Potency is on record?
A: The Potency was inconclusive [inhibitor, single point].

Q: `CC(C)(C)c1ccc(S(=O)(=O)N2CCC(CO)(CC3CCCCO3)CC2)cc1` (centres undefined) was tested. Which Potency did it give?
A: Its Potency is active: 0.316 µM.

Q: With `COc1ccc(Cl)cc1N(CC(=O)N1CCCCC1)S(C)(=O)=O` as the compound, how does the “activity, negative = inhibition” value read?
A: The value was inactive: -4.02%.

Q: With `COc1ccc(CCNC(=O)C2CC(=O)N(C3CCCC3)C2)cc1OC` (centres undefined) as the compound, how does the Potency read?
A: The Potency was inconclusive [inhibitor, partial curve].

Q: Which “activity, negative = inhibition” value does the source give for `COc1ccc(/C=N/N2CCOCC2)cc1COc1ccc(Cl)cc1` here?
A: Its value is inactive: 2.97%.

Q: For `O=C(N/N=C/c1ccccc1O)c1cc(=O)[nH]c2ccccc12`, which Potency is on record?
A: Its Potency is inconclusive [inhibitor, single point].

Q: How did the Potency turn out when `O=C(Cn1nnc(-c2ccccc2Cl)n1)N/N=C/c1ccc2c(c1)OCO2` was run?
A: The Potency was inconclusive [inhibitor, single point].

Q: For `C=CCNc1nc2ccccc2c(=O)[nH]1`, which Potency is on record?
A: Its Potency is inconclusive [inhibitor, single point].

Q: With `O=C(Nc1ccccc1F)NC1CCN(Cc2nnnn2Cc2ccc(F)cc2)CC1` as the compound, how does the “activity, negative = inhibition” value read?
A: The value was inactive: -4.2%.

Q: How did the Potency turn out when `C=CCSc1nnc(NC(=O)c2cccc(S(=O)(=O)N(C)c3ccccc3)c2)s1` was run?
A: The Potency was inconclusive [inhibitor, partial curve].
